Screen size: about 310,000 compounds; about 2,200 (0.71%) showed an effect of 50% or more. Effects have a minus sign here. This is one part of the list.
target: human ether-à-go-go-related gene (hERG) potassium channel (human, UniProt Q12809); test: primary screen, population patch clamp on CHO cells stably expressing hERG
Sequence (Q12809 whole entry, looked up): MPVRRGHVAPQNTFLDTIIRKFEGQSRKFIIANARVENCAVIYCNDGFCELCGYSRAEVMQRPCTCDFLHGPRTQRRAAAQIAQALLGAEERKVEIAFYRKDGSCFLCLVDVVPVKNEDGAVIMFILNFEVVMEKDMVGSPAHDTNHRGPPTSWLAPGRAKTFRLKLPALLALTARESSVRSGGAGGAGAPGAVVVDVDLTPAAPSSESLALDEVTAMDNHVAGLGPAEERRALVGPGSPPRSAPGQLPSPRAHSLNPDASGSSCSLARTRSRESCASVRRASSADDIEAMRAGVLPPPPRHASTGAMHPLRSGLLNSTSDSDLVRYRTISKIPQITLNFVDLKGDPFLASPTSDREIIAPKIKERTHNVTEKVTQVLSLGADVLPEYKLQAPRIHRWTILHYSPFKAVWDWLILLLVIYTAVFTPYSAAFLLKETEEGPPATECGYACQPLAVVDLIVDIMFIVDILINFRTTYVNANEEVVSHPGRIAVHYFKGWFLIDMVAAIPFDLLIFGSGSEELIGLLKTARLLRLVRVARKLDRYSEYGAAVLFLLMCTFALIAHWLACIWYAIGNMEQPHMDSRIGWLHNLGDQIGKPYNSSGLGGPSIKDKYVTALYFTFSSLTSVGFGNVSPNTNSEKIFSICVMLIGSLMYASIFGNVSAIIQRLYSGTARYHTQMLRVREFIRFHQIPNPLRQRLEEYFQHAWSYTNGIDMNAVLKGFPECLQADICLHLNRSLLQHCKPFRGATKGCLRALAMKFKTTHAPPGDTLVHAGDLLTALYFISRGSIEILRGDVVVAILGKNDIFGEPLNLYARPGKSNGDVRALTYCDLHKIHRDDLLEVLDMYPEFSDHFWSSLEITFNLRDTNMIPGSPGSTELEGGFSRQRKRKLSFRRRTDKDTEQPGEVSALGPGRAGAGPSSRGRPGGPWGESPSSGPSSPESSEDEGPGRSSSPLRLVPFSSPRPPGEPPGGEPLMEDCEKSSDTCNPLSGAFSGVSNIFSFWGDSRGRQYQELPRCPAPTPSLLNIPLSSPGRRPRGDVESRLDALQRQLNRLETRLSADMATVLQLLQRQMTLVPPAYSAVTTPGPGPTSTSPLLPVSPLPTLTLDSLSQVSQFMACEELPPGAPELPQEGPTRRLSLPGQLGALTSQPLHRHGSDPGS

SMILES	hERG current change (%, negative = inhibition) at 1uM [%]
CC(=O)N1CCc2cc(S(=O)(=O)NCCC(=O)NCCc3ccccc3)ccc21	14
COc1ccc(NC(=O)C(CC(=O)O)Cc2ccc(Br)cc2)cc1 (centres unmarked)	11.9
O=C(CC(SCc1ccco1)c1ccc(O)cc1)c1cccs1 (centres unmarked)	-0.697
CC(C)C1CC(c2ccccc2)(C(CN)CO)CCO1.O=C(O)C(=O)O (centres unmarked)	15.2
C/C(CC(=O)Nc1cc(C)ccn1)=N\NC(=O)c1ccccc1C	3.57
CCOC(=O)c1nnn(-c2nonc2-c2ccccc2)c1C	6.8
COc1cc(C(=O)OCC(=O)c2cc(C)n(C)c2C)cc(OC)c1OC	8.25
COc1cc(C(F)(F)F)c(C(=O)NCc2cccc(Cl)c2)cn1	12.6
CCOn1c(=O)c(=O)n(OC)c2ccccc21	4.7
Cc1cc2c(=O)n(Cc3ccco3)c(SCC(=O)NCc3ccco3)nc2s1	-0.915
CC1CC(C)CN(CCCNC(=O)CN2C(=O)COc3ccc(S(=O)(=O)N4CCOCC4)cc32)C1 (centres unmarked)	17.7
COc1ccc(C(=O)NNC(=O)OC(C)(C)C)cc1	16.4
CC(=O)c1c(C(C)=O)c(C)n(-c2ccc(C(=O)O)cc2)c1C	11.2
CCOc1ccc2nc(SCc3ccc(F)cc3)sc2c1	2.95
Nc1nnc(SCC(=O)NCC(=O)Nc2ccc(F)c(F)c2F)s1	8.53
CCCC(C1=C(O)CC(C)(C)CC1=O)C1C(=O)CC(C)(C)CC1=O (centres unmarked)	12
O=C(NC1CCC(=O)N(CCOc2ccccc2)CC1)OCc1ccccc1 (centres unmarked)	-4.57
CC(=O)N1CCC(=NNc2ccnc3cc(Cl)ccc23)CC1	-1.64
CC1CCc2nn(CC(=O)NC3CCCC3)cc2C1 (centres unmarked)	7.56
CCOc1ccc(N2CC(C(=O)Nc3ccc(S(=O)(=O)Nc4ncccn4)cc3)CC2=O)cc1 (centres unmarked)	4.12
COCCCNc1nc(-c2ccncc2)nc2ccccc12	-0.358
CCCCNC(=O)NCc1cnn(C)c1C	-10.6
COc1ccc(C(CC(=O)NC(C)(C)C)n2cccc2)cc1 (centres unmarked)	10.1

SMILES	hERG current change (%, negative = inhibition) at 1uM [%]
CCN(CC)S(=O)(=O)c1cc([N+](=O)[O-])ccc1NNC(=O)Nc1ccccc1	2.42
Cc1ccccc1-c1noc(-c2cccs2)n1	15.2
Cc1nc2ccc(S(=O)(=O)Nc3ccccc3C)cc2s1	3.07
O=C(CSCC(=O)c1ccccc1)Nc1ccccc1Cl	10.2
COc1ccc(-c2ncncc2-c2csc(C)n2)c(O)c1	1.8
CSc1nc(O)c(C(c2ccccc2Cl)c2c(O)nc(SC)[nH]c2=O)c(=O)[nH]1	0.693
Cc1cccc(N2CCN(C(=O)c3ccc4c(c3)NC(=O)C(CSCc3ccc(F)cc3)N4)CC2C)c1 (centres unmarked)	5.51
CCOc1ccccc1NC(=O)C(NCC1CCCCC1)c1ccccc1 (centres unmarked)	8.03
CC(C)Oc1ccc(S(=O)(=O)N2CCOCC2)cc1NC(=O)C1COc2ccccc2O1 (centres unmarked)	-3.54
Cc1ccc(NC2CCCN(C(=O)c3ccnc(Cl)c3)C2)cc1C (centres unmarked)	4.81
Cc1cccc2cc(/C=N/NC(=O)[C@H]3C[C@@H]3c3ccccc3)c(Cl)nc12	9.17
COc1ccc(CCNC(=O)Cc2ccc(OC)c(OC)c2)cc1OC	-5.3
Cc1cc(=O)[nH]c(SCC(=O)N2CCc3ccccc3C2)n1	12.1
Cl.O=C(C1CCN(S(=O)(=O)c2cccs2)CC1)N1CCN(Cc2ccccc2)CC1	19.9
Cn1cccc1/C=C1\CC(C(C)(C)C)C/C(=C\c2cccn2C)C1=O (centres unmarked)	1.03
COc1cc2c(cc1OC)C(c1cc3cccc(C)c3[nH]c1=O)N(C(=O)c1ccco1)CC2 (centres unmarked)	13.6
O=C(NCCCn1ccnc1)/C(=C\c1cccnc1)NC(=O)c1ccccc1Br	9.44
N#C/C(=C\N1CCCCC1)S(=O)(=O)c1ccc(Cl)cc1	16.6
OCCN(CCCn1c(C(F)(F)F)nc2ccccc21)c1nc(CN2CCCCC2)cs1	3.66
CC(C)(C)c1ccc(C(CC(=O)O)NC(=O)CSc2ccccc2)cc1 (centres unmarked)	15.3
CC(C)CNC(=O)CSc1nnc(CN2CCCCCC2=O)n1-c1ccccn1	6.34
Cl.Fc1ccc2c(c1)nnn2C1CCN(Cc2nnnn2CCc2ccccc2)CC1	-37.1
Cc1ccc(C(=O)NCCc2ccc(S(N)(=O)=O)cc2)o1	16.2

SMILES	hERG current change (%, negative = inhibition) at 1uM [%]
Cc1cc(C)nc(Nc2ccc(N3CCCC3)cc2)n1	7.1
CN(Cc1nnc(SCC(=O)NCCc2ccccc2)n1C)S(=O)(=O)c1ccccc1	-10.3
CN1CCN(S(=O)(=O)c2ccc(N3CCN(c4ccc(O)cc4)CC3)c([N+](=O)[O-])c2)CC1	-1.25
CC(C)NS(=O)(=O)c1ccc(NC(=S)NC(=O)c2cccc([N+](=O)[O-])c2)cc1	3.95
COc1ccc2c(c1OC)C(=O)OC2Nc1ccccn1 (centres unmarked)	11.5
Cc1cccc(Nc2nnc(-c3ccc(C(=O)N4C[C@H]5C[C@H](C4)c4cccc(=O)n4C5)cc3)c3ccccc23)c1	10.7
CCOCCc1nnc(NC(=O)c2cc(OC)c(OC)c(OC)c2)s1	10.7
O=S(=O)(CCSc1nc2ccccc2s1)c1nc2ccccc2s1	9.09
CC(=O)c1cccc(S(=O)(=O)Nc2cccnc2)c1	11.9
O=S(=O)(Nc1nc2ccccc2[nH]1)c1ccc(Cl)cc1	-7.9
CC(C)(C)c1ccc(C(=O)Nc2ccc(C=C(C#N)C#N)cc2)cc1	10.6
O=C(COC(=O)c1ccccc1NC(=O)c1ccccc1)c1cccc([N+](=O)[O-])c1	10.9
O=C(O)C1(c2ccccc2)CCN(S(=O)(=O)c2ccccc2)CC1	14.5
CCc1sc(C(=O)N2CCN(CC(=O)Nc3cccc(F)c3)CC2)cc1C	-12.1
CC(C)=CCN1CCN(Cc2cn[nH]c2C2CCCCC2)CC1CCO (centres unmarked)	8.82
COC(=O)C1=CNC=C(C(=O)OC)C1c1ccc(Cl)cc1	0.214
CN(Cc1ccccc1NS(=O)(=O)c1ccc2ccccc2c1)C1CCCCC1.Cl	-3.79
CCCCCCC(C)NC(=S)Nc1cc(S(=O)(=O)N(C)C)ccc1C (centres unmarked)	-4.97
Cc1cccc(C(=O)NC(=S)NNC(=O)c2ccc(Cl)cc2)c1	9.18
Cc1ccc(C(=O)Nc2ccccc2NC(=O)c2ccc(C)o2)o1	6.24
COc1ccc(C(=O)N/N=C\c2coc3ccc(Cl)cc3c2=O)cc1	10.8
O=C(COC(=O)c1cc([N+](=O)[O-])ccc1N1CCOCC1)Nc1ccc(Cl)cc1	15.2
CCCn1c(C)cc(C(=O)COc2ncnc3sccc23)c1C	6.19

SMILES	hERG current change (%, negative = inhibition) at 1uM [%]
O=C(c1cnn2c(C(F)F)cc(-c3ccccc3)nc12)N1CCCCC1c1cccnc1 (centres unmarked)	-9.47
CC(NC(=S)NC1CCCCC1)c1ccccc1 (centres unmarked)	9.39
N#Cc1cnc(NN)nc1	13.6
COC(=O)c1ccc(CSc2cc(C)c3ccccc3n2)o1	11.4
Clc1ccc(-c2nc3ncccn3c2Cl)cc1	6.72
Cc1cc(C)cc(-n2ccn(CC(=O)NCCc3ccccc3)c(=O)c2=O)c1	11.2
O=C(c1ccc(Cl)cc1)C1CCN(C(=O)c2ccc(F)cc2)CC1	1.39
COc1ccc(CNC(=O)CSc2nnnn2-c2ccccc2)cc1	-8.26
CN(Cc1ccccc1)C(=O)N1CCOCC1	17.7
O=C(OCC#CCSc1nnc(-c2cccc3ccccc23)o1)c1cccs1	7.2
O=c1c2ccccc2nc(CSc2ncnc3nc[nH]c23)n1-c1cccc(C(F)(F)F)c1	-2.15
O=[N+]([O-])c1cc([N+](=O)[O-])c(N2CCOCC2)cc1NCc1ccccc1	11.4
COC(OC)c1nc(SCC(=O)Nc2cccc(Cl)c2)ncc1C(=O)O	18.2
NC(=O)CC(NC(=O)c1ccccc1)c1ccc(N2CCN(c3ccccn3)CC2)c([N+](=O)[O-])c1 (centres unmarked)	7.65
C=CCNc1oc(-c2cccs2)nc1C#N	4.54
Cc1ccccc1OCCSc1nnc(C)n1-c1ccccc1	3.75
Cc1ccc(NC(=O)CN2C(=O)CSc3ccc(S(=O)(=O)N4CCCCC4)cc32)cc1	9.42
O=C(NCCN1CCOCC1)c1cnn2c1NC(c1cccs1)CC2C(F)(F)F (centres unmarked)	9.71
O=C(CSc1ncnc2ccccc12)c1ccc2c(c1)OCCO2	3.24
CCC(=O)OCCn1c(Br)nc2c1c(=O)[nH]c(=O)n2C	-4.46

Reference: article PMC4336329 (PLoS ONE, 2015)
